Measured values reported in PubChem BioAssay AID1963576 (National Center for Advancing Translational Sciences (NCATS), 2024).
The whole screen tested about 46,000 compounds, of which about 60 (0.1%) were called active. Not shown: some 3% with an inconclusive outcome. Calls follow the shape of the dose curve; as a rule, active = well fitted inhibition curve with a large enough effect; inconclusive = small, poorly fitted or top-dose-only effect; inactive = no such curve, though single readings can be large or run the other way. The list shows a part of the results.

assay: Primary qHTS assay for Inhibitors of ovarian cancer metastasis using an organotypic tumor microenvironment (TME) model.; also: nearly all actives have a fitted effect of over 65% in size;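 as to activity change, negative = inhibition: plate controls were DMSO wells for no effect and tomatine positive control wells for full effect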; details: SKOV3ip1-GFP adhesion/invasion on 3D omental model, fluorescence; series mostly up to 45.8 µM; activity change, negative = inhibition: at the top concentration
Summary of the method: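 Primary human omental fibroblast/mesothelial 3D culture pre-formed 48 h. SKOV3ip1-GFP cells added with compounds (0.36-46 umol/L), incubated 2 h RT/16 h 37 C, fixed; GFP cells quantified at 488/509 nm.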

Activity change, negative = inhibition, inactive:
O=C(CSc1nc2c([nH]c3ccccc32)c(=O)n1-c1ccc(F)cc1)NCC1CCCO1 (stereo unspecified) -0.621%
Cc1ccccc1C(=O)Nc1sc2c(c1C(=O)O)CCC(C(C)(C)C)C2 (stereo unspecified) -6.31%
O=C(NCc1ccc(Cl)cc1)c1cc2ccc3cccnc3c2[nH]1 -7.7%
CC(C)c1ccc(Cc2cn3cc(-c4cc5ccccc5oc4=O)nc3s2)cc1 -25.6%
Cc1ccc(NC(=O)NCCOCCn2c(=O)oc3ccccc32)c(C)c1 2.46%
Cc1nc(N2CCCC2)ncc1C(=O)NCc1ccc(Cl)cc1 6.85%
CC1=C(c2ccc(F)cc2)S(=O)(=O)N=C1N1CCC(C(=O)NCCc2ccccc2)CC1 -4.14%
COc1cccc(C(=O)c2cn(CC(=O)Nc3cc(Cl)c(OC)cc3OC)c3nc(C)ccc3c2=O)c1 -3.18%
COc1ccc(NC(=O)Cn2nc3c(cc2=O)CCCC3)cc1Cl -9.23%
Cc1cccc(NC(=O)c2cc(CN3CCOCC3)on2)c1C 7.12%
Cc1cccc(C)c1NC(=O)NCCCN1CCN(c2ccccc2)CC1 -2.06%
CC(C)(C)c1ccc(C(=O)NNc2ncnc3c2cnn3-c2ccc(Cl)cc2)cc1 8.11%
COc1cc(CN(C(=O)COc2ccc(Cl)cc2)c2ccccn2)cc(OC)c1OC -1.71%
COc1ccc(OC)c(C2=NS(=O)(=O)N(C)C(C(=O)Nc3ccc(C(C)=O)cc3)=C2)c1 -0.897%
CCOc1ccc(NC(=O)Cn2cc(S(=O)(=O)c3ccc(C)cc3)c(=O)c3cc(F)ccc32)cc1 -3.29%
CC(=O)c1nn(-c2ccc(OC(F)(F)F)cc2)nc1Nc1ccc(Cl)cc1 6.27%
CCc1ccc2occ(CC(=O)Nc3nnc(C)s3)c2c1 0.551%
O=C(CSc1nc2c([nH]c3ccccc32)c(=O)n1-c1ccccc1)NCc1ccc(F)cc1 6.16%
CCc1ccccc1NC(=O)CC(C)S(=O)(=O)c1ccc2c(c1)NC(=O)CO2 (stereo unspecified) 0.175%
COc1ccc(C(=O)c2cnc3ccc(C)cc3c2S(=O)(=O)c2ccccc2)cc1 -5.14%
COc1ccc(S(=O)(=O)N2CCC(C(=O)NC(C)c3ccccc3)CC2)cc1 (stereo unspecified) 1.85%
O=C(Nc1ccc(Br)cc1)c1cc2nc(-c3ccccc3)cc(-c3ccccc3)n2n1 3.87%
COc1ccc2[nH]cc(CCN=C(NC(=O)c3cccc(Cl)c3)Nc3nc(C)cc(C)n3)c2c1 7.42%
CCOc1ccc(-c2nnc(SCC(=O)NCc3ccc(Cl)cc3)o2)cc1 -2.02%
CC(O)=C(C#N)C(=O)Nc1ccc(C(F)(F)F)cc1 3.12%
COc1ccc(C(=O)N2CCC(c3nc4ccccc4s3)CC2)cc1Cl -11.8%
Cc1cc(NC(=O)Nc2nnc(N(C)C3CCCCC3)s2)ccc1Br 5.36%
CCc1ccc(NCc2cc3cc4c(cc3n(CC(=O)Nc3ccccc3OC)c2=O)OCCO4)cc1 -1.89%
Cc1cc(=O)c2cc(C(=O)Nc3ccc(C)c(C)c3)ccc2[nH]1 12.3%
COc1ccccc1NC(=O)CSc1nnc(NC(=O)NC2CCCCC2)s1 3.45%
COc1ccccc1/C=C/c1nc(C#N)c(N2CCN(C)CC2)o1 1.27%
Cc1nn(-c2ccccc2)c2c1cc1c(=O)[nH]c(=O)nc-1n2-c1cccc(Cl)c1 17.8%
COc1cc(Cl)c(C)cc1NC(=O)CSc1nc2c(c(=O)[nH]1)CCC2 -0.955%
CCC(Sc1nc2ccncc2[nH]1)C(=O)Nc1cc(Cl)ccc1C (stereo unspecified) -5.3%
Cc1cccc(NC(=O)Cn2ncc3c4ccccc4n(Cc4ccccc4)c3c2=O)c1C 3.88%
CCc1c2c(nc3ccc(O)cc13)-c1cc3c(c(=O)n1C2)COC(=O)[C@]3(O)CC 15.1%
CCOC(=O)c1cccc(NC(=O)CC2C(=O)N(c3ccc(Cl)cc3)C(=O)N2C2CCCC2)c1 (stereo unspecified) -2.72%
CCc1ccc(S(=O)(=O)c2nnn3c2nc(N2CCOCC2)c2sccc23)cc1 -5.26%
Cc1cc(-c2ccccc2)n2nc(-c3ccc(Cl)cc3)cc2n1 -3.2%
Cc1ccc(N2CC(c3nc(-c4ccc(Cl)cc4)no3)CC2=O)cc1F (stereo unspecified) -1.32%
Cc1sc2c(c1C)c(=O)n(-c1ccc(Cl)cc1)c(=O)n2Cc1cc(=O)n2cc(Br)ccc2n1 -14.9%
COc1ccc(NC(=O)CSc2oc(-c3ccc(F)cc3)nc2S(=O)(=O)c2ccc(C)cc2)c(OC)c1 -0.489%
CC(=O)c1cccc(NS(=O)(=O)c2cc(-c3onc(C)c3C)ccc2C)c1 -4.85%
CCc1cc2c(cc1N1CCC(N3CCOCC3)CC1)C(C)(C)c1[nH]c3cc(C#N)ccc3c1C2=O -3.4%

outcome, inactive:
Cc1ccc(C2C(=O)N(C3CCCCCC3)CC(=O)N2C(C)C)cc1 (stereo unspecified)
COc1ccccc1N1CCN(S(=O)(=O)c2ccc(-c3ccno3)cc2OC)CC1
COc1cccc(-n2c(SCC(=O)Nc3cccc(C)c3)nc3c([nH]c4ccccc43)c2=O)c1
O=C(CSc1ccccc1)N1CCc2c([nH]c3ccccc23)C1c1ccc(Cl)cc1 (stereo unspecified)
Cc1cccc(S(=O)(=O)c2cn(C)c3cc(N4CCCCCC4)c(F)cc3c2=O)c1
Cc1ccc(C)c(NC(=O)C2CCN(c3ncnc4c3nc3n4CCCCC3)CC2)c1
O=C(CN1C(=O)C2(SCC(=O)N2c2ccccc2)c2ccccc21)Nc1ccccc1C(F)(F)F (stereo unspecified)
CCNC(=O)C1CCN(c2nc3ccccc3nc2C(F)(F)F)CC1
Cc1ccc(CN2C(=O)C(O)(CC(=O)c3ccc(C)cc3)c3ccccc32)cc1 (stereo unspecified)
Cc1ccc2oc(C(=O)Nc3ccc(S(=O)(=O)N(C)c4ccccc4)cc3)cc(=O)c2c1
Cc1ccc(CNC(=O)C2CCN(S(=O)(=O)c3cccc4nonc34)CC2)cc1
O=C(c1ccc2c(c1)N(Cc1ccccc1F)C(=O)c1ccccc1S2(=O)=O)N1CCc2ccccc21
CCc1ccccc1NC(=O)Cn1c(=O)n(CCCCCC(=O)NCc2ccc(C)cc2)c(=O)c2sccc21
Cc1ccc(S(=O)(=O)CCC(=O)Nc2ccc(OC(F)(F)F)cc2)cc1
Cc1cc(Br)ccc1NC(=O)C1CCCN(S(=O)(=O)c2cccc3nonc23)C1 (stereo unspecified)
Cc1cc(N2CCC(C(=O)Nc3ccc(F)cc3C)CC2)n2nc(C)c(-c3ccc(Cl)cc3)c2n1
COc1cc(Cl)c(NC(=O)c2cc(S(=O)(=O)N3CCCCC3)c[nH]2)c(OC)c1
